{"source": "paper PMC10726135", "note": "This is one part of the list. At the low end of the ranking the order means little. The protein was read in a cell extract, so binding may be indirect."}
{"target": "T1, HNF4alpha8 (COS-7 nuclear extract) (UniProt P41235-5)", "T1 sequence": "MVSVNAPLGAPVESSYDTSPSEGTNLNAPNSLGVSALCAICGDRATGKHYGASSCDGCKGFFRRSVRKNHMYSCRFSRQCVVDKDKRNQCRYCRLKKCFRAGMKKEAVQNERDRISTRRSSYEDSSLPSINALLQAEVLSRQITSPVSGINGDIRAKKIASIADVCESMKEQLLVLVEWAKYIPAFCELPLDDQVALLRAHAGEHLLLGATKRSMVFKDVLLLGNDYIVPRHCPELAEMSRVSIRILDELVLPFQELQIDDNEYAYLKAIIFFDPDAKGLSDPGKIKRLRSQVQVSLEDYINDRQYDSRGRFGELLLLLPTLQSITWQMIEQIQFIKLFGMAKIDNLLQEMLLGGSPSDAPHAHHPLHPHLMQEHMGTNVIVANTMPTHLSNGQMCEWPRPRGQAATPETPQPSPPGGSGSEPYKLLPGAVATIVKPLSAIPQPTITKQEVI", "experiment": "protein-binding microarray", "settings": "COS-7 nuclear extract on double-stranded Agilent 4x180k PBM; binding buffer, salt, pH and temperature not given; high values mean tight binding; double strand, one strand shown; sequences stand for … in …GCCTAGGGAGATTAGAGTATCGGTCGA"}
{"sequence": "CACCTCTTCAGATAGCCTTTGCCTCCACCT", "binding signal (log2 normalized intensity)": 1.24}
{"sequence": "TTTGGTGAGGCCCCAGTGTCAATTCTCATT", "binding signal (log2 normalized intensity)": 1.38}
{"sequence": "ATTGATTGGGACCTGAGAACAAACAATGGT", "binding signal (log2 normalized intensity)": -0.195}
{"sequence": "CAGGTGCTGGGATGATTCCCTTATCTTCTC", "binding signal (log2 normalized intensity)": 0.155}
{"sequence": "GCCCCTGATGTGATGTAATCAAATGTACAC", "binding signal (log2 normalized intensity)": 2.06}
{"sequence": "CCCATCTGGGACTTCAAAGCGCAGCGCGGG", "binding signal (log2 normalized intensity)": -1.18}
{"sequence": "CAATCAGAAACCGGGCCAATGGGTTCCCTG", "binding signal (log2 normalized intensity)": -1.34}
{"sequence": "CCGGAATTTCCTCCTGGCAGAGCATAGAAG", "binding signal (log2 normalized intensity)": -1.35}
{"sequence": "AGTGTGACTCATCAATCTGGAATTACCTGT", "binding signal (log2 normalized intensity)": 0.605}
{"sequence": "CAATTTCCAGGAGTATGTGTTTGCTTTACC", "binding signal (log2 normalized intensity)": 0.577}
{"sequence": "GAAGAGACAGCTGGGCCCTGCCTGACCTGC", "binding signal (log2 normalized intensity)": 1.81}
{"sequence": "CGAGCACGGTGCAGGGAGGATATCCCTCCG", "binding signal (log2 normalized intensity)": -1.21}
{"sequence": "CTGCAAGGTTTGTGTACGGACGCATCTGTC", "binding signal (log2 normalized intensity)": 0.564}
{"sequence": "CATATTTTGAAAGAAAGAGACCTTTACCCT", "binding signal (log2 normalized intensity)": 5.96}
{"sequence": "GCTTAAATTCTTGTATGCTTAACTATGTTT", "binding signal (log2 normalized intensity)": -0.443}
{"sequence": "ATACAAGCTAATCTGACCAAGTGAACTGTG", "binding signal (log2 normalized intensity)": 2.05}
{"sequence": "CTTAGCAGGATTCTTGCTGCAGCTGGGCTA", "binding signal (log2 normalized intensity)": -1.37}
{"sequence": "TTCTTTGGTTGGGAATAACATTGTGTAGTT", "binding signal (log2 normalized intensity)": 1.04}
{"sequence": "ACGCAGGGCGGCCGGCGGAGCGCCGAGCAG", "binding signal (log2 normalized intensity)": -1.22}
{"sequence": "TTCCCTTGGAATGCCAGATGACCTTTGCCC", "binding signal (log2 normalized intensity)": 10.2}
{"sequence": "GTGGTCCTAAGACTGACCTTTGATCATTTG", "binding signal (log2 normalized intensity)": 9.52}
{"sequence": "AACAGTGAGCCCAGTGGAGTAGGCTTTAGA", "binding signal (log2 normalized intensity)": -1.29}
{"sequence": "GGCTTGTACCTTGACCTTCTCTGTTAACCC", "binding signal (log2 normalized intensity)": 4.96}
{"sequence": "ATTTTGGACTTTGTGCAAATGGAAAATTGT", "binding signal (log2 normalized intensity)": 3.52}
{"sequence": "TAAGATTGAGAACTTTGACACCGAGGCATA", "binding signal (log2 normalized intensity)": 1.97}
{"sequence": "CCTTGCCACCCACACTGCAGCAAAACTTTA", "binding signal (log2 normalized intensity)": -0.731}
{"sequence": "CAGAAAAGGCTGTAAACTCACTCTGGGAAA", "binding signal (log2 normalized intensity)": -1.32}
{"sequence": "GGGCTACCGATATGAGGCTTCCATTCTCAG", "binding signal (log2 normalized intensity)": -1.33}
{"sequence": "TCTCATTTCTGAACACTCCAAGGTGTCCAG", "binding signal (log2 normalized intensity)": 0.334}
{"sequence": "TGGACAGAAATATCAGCAAGGAAATAAAAG", "binding signal (log2 normalized intensity)": -1.39}
{"sequence": "AGCCAATAGGCGAGGACGCAGTCCCGCGTG", "binding signal (log2 normalized intensity)": -1.27}
{"sequence": "AGTCCAGAGTTTGTGGCTCCATACTCCTTA", "binding signal (log2 normalized intensity)": -1.15}
{"sequence": "ACACCTCTTCTTTCTTCTCTGGTACCCTGG", "binding signal (log2 normalized intensity)": 1.92}
{"sequence": "ACCTAGTAGGCACAAAGGTGCAAAGTACAT", "binding signal (log2 normalized intensity)": 5.14}
{"sequence": "CACAATGTCAGTGAGGCCAAAAGGTGCTAC", "binding signal (log2 normalized intensity)": -1.28}
{"sequence": "TAAGTGTGGGTTTAAGTAAGCCCCCTTCCC", "binding signal (log2 normalized intensity)": 4.85}
{"sequence": "AAAAAAAAAAAAAAAAAGAACACAGTGTAG", "binding signal (log2 normalized intensity)": -1.29}
{"sequence": "GATCTTGAGGCCCACAAGGAATTTCCTTGT", "binding signal (log2 normalized intensity)": -1.26}
{"sequence": "TCAAGCTAGGTAAGCACAGGTTTCTGTCCT", "binding signal (log2 normalized intensity)": 0.42}
{"sequence": "CTCTGCAAACATTTATTTTGTGTGCTAGAT", "binding signal (log2 normalized intensity)": 1.63}
{"sequence": "GTATCTCTTCGCCTTGCTTATCTGGGAGGG", "binding signal (log2 normalized intensity)": -0.342}
{"sequence": "AAACAAACTCCCAGTCTGTTATCAGAGCTG", "binding signal (log2 normalized intensity)": -1.29}
{"sequence": "TATCATGAGGTATATTCAACCCCCACTTCC", "binding signal (log2 normalized intensity)": 4.31}
{"sequence": "GAATTCAACCCTTGTCACTTTCCCTTTGTC", "binding signal (log2 normalized intensity)": 1.83}
{"sequence": "TTATCAGCAGGACACCAAACAGACCTCCCC", "binding signal (log2 normalized intensity)": 2.63}
{"sequence": "TGGTTACAAAGGTCACACTCCTGTGCAAAC", "binding signal (log2 normalized intensity)": 4.73}
{"sequence": "TACCACCAAAGAAAAAAGCCAATCTCTCAA", "binding signal (log2 normalized intensity)": -1.34}
{"sequence": "CTAACAGCTGCAAGTGCCAACAAACTCAAT", "binding signal (log2 normalized intensity)": -1.3}
{"sequence": "CAAACAGCTTCCAGAATAGCCTCTGCAACT", "binding signal (log2 normalized intensity)": -1.39}
{"sequence": "GAGTGAAGCCACAGAGATCAGAATCATAAA", "binding signal (log2 normalized intensity)": -0.979}
{"sequence": "CAGGCTCAGGGACCCAGCGGAATGCCAGCC", "binding signal (log2 normalized intensity)": -1.19}
{"sequence": "CCTCATGGGCGATCCCGAAAGCCGGTTCCC", "binding signal (log2 normalized intensity)": -1.29}
{"sequence": "GTATGTGCCTGGAGAGCTAGTAAGGAGCTG", "binding signal (log2 normalized intensity)": -1.29}
{"sequence": "CTGCGGCGGAAGGACACAGATTCAGAGTCA", "binding signal (log2 normalized intensity)": -1.14}
{"sequence": "TTGAGCTCTGCACAGCACAAGATAAGATAG", "binding signal (log2 normalized intensity)": -1}
{"sequence": "GTCCATGATTGCTGTCTACTCTGGGGGTCA", "binding signal (log2 normalized intensity)": 4.23}
{"sequence": "CTTATCTGGCCTGCTGGGAACTCAGGATCA", "binding signal (log2 normalized intensity)": -0.272}
{"sequence": "GGGTAACTGACCTTGTTGCCCACCCCCCAA", "binding signal (log2 normalized intensity)": 5.8}
{"sequence": "GCTTTGTTCTGTTCCAGTTATGTTCTCTGT", "binding signal (log2 normalized intensity)": 2.24}
{"sequence": "TGGTATCCACAGAGTTCATAATTTTGGACT", "binding signal (log2 normalized intensity)": 3.73}
{"sequence": "GAGTTCCTTCAGACCCAATAAACTTGTTTG", "binding signal (log2 normalized intensity)": 0.593}
{"sequence": "GCCAAGGAAGAGAAGACCAAACAACCAGGG", "binding signal (log2 normalized intensity)": -1.18}
{"sequence": "CTGTCGTCCCAGGGCAAAGGTCACCAGCTA", "binding signal (log2 normalized intensity)": 7.57}
{"sequence": "CATCCAAAGTTTCCTCTCCTGCCCTACTCC", "binding signal (log2 normalized intensity)": 2.47}
{"sequence": "TGCTGAGTATGCAGCGGGCAGCCCGTGTGG", "binding signal (log2 normalized intensity)": -1.02}
{"sequence": "AAGCCTCAGGAGTTGGAGGAACAGGTGGGG", "binding signal (log2 normalized intensity)": -1.23}
{"sequence": "ACCAGTCCCATCTGTGCTCATTATTATCAG", "binding signal (log2 normalized intensity)": 0.364}
{"sequence": "CGGGTGGACGTCCCCGGGCGGGATGGGGTC", "binding signal (log2 normalized intensity)": 2.74}
{"sequence": "TAGGCCGGTCAAGTCAGAGGCCCAGCAAGG", "binding signal (log2 normalized intensity)": -1.37}
{"sequence": "CAGGCCAGTAGGTCAGTGTCCCTCTTATAC", "binding signal (log2 normalized intensity)": 1.01}
{"sequence": "TCCCCTGAGCTTGAGTCCATCCCATCTTCC", "binding signal (log2 normalized intensity)": 1.98}
{"sequence": "GAGACAATCACTTGTATCGCCTGAATGACC", "binding signal (log2 normalized intensity)": 2.3}
